# Assay results published in publication PMC4336329 (PLoS ONE, 2015).
# Hit rate of the full screen: of about 310,000 compounds, about 2,200 (0.71%) showed an effect of 50% or more. The effect is printed as a negative number. Some of the results follow.
# Molecular target: human ether-à-go-go-related gene (hERG) potassium channel (human, UniProt Q12809)
# Assay: primary screen, population patch clamp on CHO cells stably expressing hERG
# human ether-à-go-go-related gene (hERG) potassium channel, sequence (Q12809 whole entry, looked up): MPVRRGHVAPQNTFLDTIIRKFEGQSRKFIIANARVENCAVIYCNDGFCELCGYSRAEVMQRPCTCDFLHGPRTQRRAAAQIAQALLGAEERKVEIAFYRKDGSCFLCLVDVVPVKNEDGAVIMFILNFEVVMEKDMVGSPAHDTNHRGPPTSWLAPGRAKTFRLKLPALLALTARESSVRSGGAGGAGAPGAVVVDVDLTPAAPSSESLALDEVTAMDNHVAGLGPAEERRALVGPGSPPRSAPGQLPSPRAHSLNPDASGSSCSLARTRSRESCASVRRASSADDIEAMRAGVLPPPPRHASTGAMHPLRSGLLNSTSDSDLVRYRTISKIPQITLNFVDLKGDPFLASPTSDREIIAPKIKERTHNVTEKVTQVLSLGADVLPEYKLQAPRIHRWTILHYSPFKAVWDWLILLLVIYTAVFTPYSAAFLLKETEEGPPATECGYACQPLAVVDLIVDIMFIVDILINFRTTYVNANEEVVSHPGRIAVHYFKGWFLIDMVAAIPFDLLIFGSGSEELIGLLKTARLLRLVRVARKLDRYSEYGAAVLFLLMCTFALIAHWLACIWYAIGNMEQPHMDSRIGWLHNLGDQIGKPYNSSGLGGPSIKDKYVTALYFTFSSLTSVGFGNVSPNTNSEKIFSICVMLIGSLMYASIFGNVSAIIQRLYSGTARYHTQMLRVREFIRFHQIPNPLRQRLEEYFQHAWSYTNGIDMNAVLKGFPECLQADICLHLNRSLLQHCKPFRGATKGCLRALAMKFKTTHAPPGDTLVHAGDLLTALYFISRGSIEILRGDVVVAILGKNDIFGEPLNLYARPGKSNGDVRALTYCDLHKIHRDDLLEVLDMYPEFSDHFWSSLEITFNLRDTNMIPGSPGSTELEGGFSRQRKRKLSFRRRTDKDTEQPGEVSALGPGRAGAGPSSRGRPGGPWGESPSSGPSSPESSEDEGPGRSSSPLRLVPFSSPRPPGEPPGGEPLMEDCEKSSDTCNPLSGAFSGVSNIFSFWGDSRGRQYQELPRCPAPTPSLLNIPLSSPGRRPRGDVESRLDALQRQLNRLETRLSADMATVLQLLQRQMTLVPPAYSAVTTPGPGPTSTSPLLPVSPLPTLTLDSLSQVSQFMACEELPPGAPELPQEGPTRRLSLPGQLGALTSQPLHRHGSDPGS
row,Structure (SMILES),"hERG current change (%, negative = inhibition) at 1uM [%]"
1,Cc1ccc(S(=O)(=O)ON=C2CCN(S(=O)(=O)c3ccccc3)CC2)cc1,20.5
2,Nc1nc(SCC(=O)NCc2ccc(F)cc2)[nH]c(=O)c1NC(=O)c1ccc(Cl)cc1,1.88
3,Cc1ccnc2nc(C(=O)Nc3nnc(CC(C)C)s3)nn12,9.78
4,O=[N+]([O-])c1ccc(OCc2cnc(Cl)s2)c([N+](=O)[O-])c1,-18.3
5,S=c1[nH]nc(-c2cc(-c3ccccc3)n[nH]2)n1/N=C/c1cccs1,10.2
6,Cc1ccc(N2CC(C(=O)N3CCC4(CC3)CC(=O)c3ccccc3O4)CC2=O)cc1C (centres unmarked),-6.22
7,O=C(c1ccc2c(c1)OCCO2)C1CCN(S(=O)(=O)c2cccc(F)c2)CC1,-2.61
8,O=C1C2C(c3cccc(/C=C/c4ccccc4)c3)CC=CC2C(c2ccc(C(F)(F)F)cc2)N1Cc1ccccc1 (centres unmarked),7.68
9,O=C(NCCCn1ccnc1)c1cc2nc(-c3ccc(Br)cc3)cc(C(F)(F)F)n2n1,-6.23
10,COc1cccc(OCC(=O)NNC(=O)c2ccc3ccccc3c2)c1,8.87
11,CCN(CC)c1ccc(/C=N/NC(=O)C2CC2)cc1,5.61
12,Cc1ccc(S(=O)(=O)NC(=O)N(CCC#N)Cc2ccccc2)cc1,10.9
13,CCC(C)[C@H](NC(=O)Nc1cccc(OC)c1)C(=O)OC (some centres unmarked),15.7
14,Cc1ncoc1C(=O)N1CCCC(CCC(=O)NCc2ccc(F)c(F)c2)C1 (centres unmarked),4.81
15,Cn1cc(CC(=O)NCc2ccc(F)cc2)c2ccccc21,5.25
16,COc1ccccc1/C=C/C(=O)NCc1ccccn1,10.3
17,N#C[C@@H]1N(Cc2ccccc2)C(=O)[C@H]2CC3C=CC21O3 (some centres unmarked),3.66
18,Cc1cccc(NC(=S)N(CCCN2CCOCC2)Cc2cn(C)c3ccccc23)c1,12.5
19,CCCn1c(=O)[nH]c2ccccc21,13.6
20,COC(=O)CSc1ccnc2cc(Cl)ccc12,14.2
21,C/C(=N/NC(=O)CNC(=O)c1cccnc1)c1ccc([N+](=O)[O-])cc1,5.31
22,COc1ccc(Cl)c(Cn2c(NCC(C)O)nc3c2c(=O)n(C)c(=O)n3C)c1 (centres unmarked),11.5
23,Oc1ccc(/C=N/Nc2cccc3cccnc23)c(O)c1,8.82

row,Structure (SMILES),"hERG current change (%, negative = inhibition) at 1uM [%]"
1,Cc1ccc2c(c1)NCC(C(=O)NC1CCC(C)CC1)O2 (centres unmarked),13.3
2,O=C(NC1CCN(Cc2cccc([N+](=O)[O-])c2)CC1)c1ccccc1,-3.19
3,CCn1c(=NC(=O)COc2ccccc2)sc2cccc(F)c21,10
4,O=C(CCc1ccccc1)Nc1ccc(N2CCOCC2)c(Cl)c1,-3.69
5,N#CCN(N=Nc1ccccc1)c1ccccc1,15.4
6,COc1ccc(-c2nn(C)c3sc(C(=O)NCCN(C)C)cc23)cc1OC,22.4
7,CCCN(CC(=O)Nc1ccccc1OC)C(=O)CCC(=O)c1ccc(F)cc1,1.81
8,CN(C(=O)CC(=O)Nc1ccc(Cl)c(Cl)c1)c1ccccc1,3.44
9,COc1ccc(C)cc1S(=O)(=O)N1CCCCC1,7.39
10,O=C(NCCCN1CCCC1)c1ccc(CS(=O)(=O)c2ccc(Cl)cc2)o1,18.1
11,CCCNC(=O)N1[C@H]2CC[C@@H]1C(C(=O)OC)=C(c1ccc(Cl)c(C(F)(F)F)c1)C2,11.2
12,COc1cc(OC)cc(-c2sc3ccc(OC)cc3c2C#CCCO)c1,17.1
13,O=C1Nc2ccccc2C(O)(C(=O)NCc2ccco2)N1c1ccc(Cl)c(Cl)c1 (centres unmarked),8.48
14,CCOc1ccc2oc(C(=O)NCC(C)(C)CN(C)C)c(C)c2c1.Cl,-13
15,CCn1cc(C(=O)NC(C)C)c(=O)c2cc(F)c(N3CCN(C(=O)c4ccco4)CC3)cc21,-4.05
16,Cc1ccc(S(=O)(=O)N(C)c2ccc(C)c([N+](=O)[O-])c2)cc1,6.74
17,COc1cc(NC(=O)CC2NCCNC2=O)cc(OC)c1 (centres unmarked),20.3
18,COc1cccc(OC)c1OCCN1CCN(C(=O)c2ccco2)CC1.Cl,7.12
19,COc1cc(/C=C(/C#N)C(=O)NCc2ccccc2)cc(OC)c1OC,8.05
20,Cc1ccccc1NC(=O)Cc1nc(COC(=O)c2cc(Cl)ccc2O)cs1,9.21
21,COc1ccccc1NC(=O)c1ccc2c(c1)C(=O)N(Cc1ccco1)C2=O,14.1
22,CSc1nnc2c3ccccc3n(Cc3ccccc3)c2n1,19.2
23,Cc1ccc(C)c(NC(=O)COC(=O)c2ccc3c(c2)OCO3)c1,15.1

row,Structure (SMILES),"hERG current change (%, negative = inhibition) at 1uM [%]"
1,Cc1ccc(NC(=S)NCCN2CCOCC2)cc1C,-3.6
2,O=C(Nc1cc(=O)[nH]c2ncnn12)c1ccc(Cl)cc1Cl,-2.66
3,CC1CC(C)CN(C(=O)c2ccc(S(=O)(=O)N3CCCCC3)cc2)C1 (centres unmarked),11.1
4,COc1ccccc1COc1ccc2c(C)c(CCC(=O)O)c(=O)oc2c1C,14
5,Cc1cc(NC(=O)CSCC(=O)N2CCN(c3cccc(C)c3C)CC2)no1,6.26
6,CCC(Oc1ccc(C)cc1)C(=O)Nc1ccc2c(c1)n(C)c(=O)n2C (centres unmarked),12
7,N#CCCCn1c(=O)oc2ccccc21,10
8,CC1CC(C)CN(C(=O)CSc2nnc(CSc3ncccn3)n2C)C1 (centres unmarked),14.1
9,CN(C)c1cccc2c(S(=O)(=O)N3CCOCC3)cccc12,1.32
10,CCCn1nc(NS(=O)(=O)c2cccc3nonc23)c2cc3cccc(C)c3nc21,9.2
11,CCc1sc(C(=O)Nc2ncccc2O)cc1C,3.73
12,O=C(CN1C(=O)S/C(=C/c2cccnc2)C1=O)N1CCOCC1,8.39
13,COc1ccc(CC(=O)N/N=C/c2cccnc2)cc1OC,10.4
14,COc1cc(NS(=O)(=O)c2ccc(N/C=C(\C=O)c3nc4ccccc4o3)cc2)nc(OC)n1,14.2
15,N#Cc1c(OCC(=O)c2ccccc2)nc2c(c1-c1ccco1)CCc1ccccc1-2,7.81
16,CCN(CC)C(=O)CSc1nc2cc3c(cc2c(=O)n1CCCC(=O)NCCc1ccc(OC)c(OC)c1)OCO3,0.696
17,CC(OC(=O)c1ccc2ncsc2c1)C(=O)N(C)C1CCCCC1 (centres unmarked),9.47
18,O=C(NCc1ccc(F)cc1)C(c1ccco1)N(C(=O)c1csnn1)C1CC1 (centres unmarked),9.29
19,COCCCN1C(=O)c2[nH]nc(-c3cc(C)cc(C)c3O)c2C1c1ccc(O)c(OC)c1 (centres unmarked),6.9
20,O=C(NCc1ccccc1)c1ccc(S(=O)(=O)NCc2ccco2)cc1,8.84
21,N#Cc1c(NC(=O)CCn2cnc3ccccc3c2=O)oc(-c2ccccc2)c1-c1ccccc1,7
22,CCOC(=O)C1CCCc2c1[nH]c1c(C(=O)O)cccc21 (centres unmarked),10.2
23,COC(=O)C(C)N(C#N)c1nc(C)nc(C)n1 (centres unmarked),3.74

row,Structure (SMILES),"hERG current change (%, negative = inhibition) at 1uM [%]"
1,N#Cc1c(-c2ccccc2)nc(SCc2ccc(Cl)cc2)[nH]c1=O,16.5
2,Cc1cc(NC(=O)CSc2nnnn2-c2ccccc2F)no1,21.3
3,O=C(NC(=S)Nc1nc(-c2ccc(Br)cc2)cs1)c1cccnc1,12.5
4,Cc1ccc2[nH]c(=O)c(CN(C)C(=O)c3cccs3)cc2c1,16.2
5,O=C(O)c1ccccc1C(=O)N(Cc1ccccc1)Cc1ccccc1,13.7
6,NS(=O)(=O)c1ccc(C(=O)O)cc1,8.05
7,COc1ccc(NC(=S)NCc2ccco2)c(OC)c1,4.26
8,Cc1c(-c2ccccc2)nc(N)c(C#N)c1-c1cccnc1,5.2
9,O=c1cc(Nc2ccc3c(c2)OCCO3)[nH]c(=O)n1-c1ccc(Br)cc1,15.2
10,CCOC(=O)c1ccc(NC(=O)NCc2ccccn2)cc1,8.88
11,COc1cc(-c2nn3c(Cc4ccccc4)nnc3s2)cc(OC)c1OC,6.91
12,Br.CCCCCCCCn1c2c(c(=N)c3c1CCC3)CCCC2,-84.6
13,C#Cc1ccc([C@H]2C=C(C(=O)N3CCN(Cc4ccc5c(c4)OCO5)CC3)O[C@@H](OCC)[C@@H]2CCCO)cc1,6.87
14,COc1ccc2nc(Nc3ccccc3)sc2c1,24.2
15,Cc1ccc(S(=O)(=O)NCCc2ccncc2)cc1[N+](=O)[O-],21
16,CCN1C(=O)C(CC(=O)Nc2ccc(OC)cc2)N(Cc2cccs2)C1=S (centres unmarked),1.47
17,O=C(Nc1ccc(O)cc1C(=O)O)c1ccc(NC(=O)c2ccco2)cc1,11.2
18,COc1ccc(C(=O)Nc2cc(C)nc3ccccc23)cc1OC,13.4
19,CCOC(=O)c1sc(=NC(=O)/C=C/c2cccs2)n(C)c1C,7.02
20,CCOc1ccc(C(=O)OCCN(C)C)cc1.Cl,8.1
